Consider eleven substances from publication PMC3868573.

The chains behind the UniProt entries cited, without tags or fusion partners. Where a name states a change or a piece, a line headed by the entry shows the natural chain unless it says otherwise. A line that says so, or that is headed by a name, gives the form on record, which may keep a tag or linker.
UniProt Q9HC16: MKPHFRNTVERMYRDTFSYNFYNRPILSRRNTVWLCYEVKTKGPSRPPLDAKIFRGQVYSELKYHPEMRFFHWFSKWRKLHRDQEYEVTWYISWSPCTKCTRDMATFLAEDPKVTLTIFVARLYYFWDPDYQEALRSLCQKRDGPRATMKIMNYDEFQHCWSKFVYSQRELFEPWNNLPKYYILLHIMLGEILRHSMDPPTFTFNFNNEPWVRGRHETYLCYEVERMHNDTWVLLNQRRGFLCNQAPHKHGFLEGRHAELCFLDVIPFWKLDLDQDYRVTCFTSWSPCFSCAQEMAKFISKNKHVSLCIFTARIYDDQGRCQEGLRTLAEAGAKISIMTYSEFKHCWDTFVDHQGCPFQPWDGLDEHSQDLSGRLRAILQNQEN
hA3G-4G(124–127)-HA (Q9HC16, form named): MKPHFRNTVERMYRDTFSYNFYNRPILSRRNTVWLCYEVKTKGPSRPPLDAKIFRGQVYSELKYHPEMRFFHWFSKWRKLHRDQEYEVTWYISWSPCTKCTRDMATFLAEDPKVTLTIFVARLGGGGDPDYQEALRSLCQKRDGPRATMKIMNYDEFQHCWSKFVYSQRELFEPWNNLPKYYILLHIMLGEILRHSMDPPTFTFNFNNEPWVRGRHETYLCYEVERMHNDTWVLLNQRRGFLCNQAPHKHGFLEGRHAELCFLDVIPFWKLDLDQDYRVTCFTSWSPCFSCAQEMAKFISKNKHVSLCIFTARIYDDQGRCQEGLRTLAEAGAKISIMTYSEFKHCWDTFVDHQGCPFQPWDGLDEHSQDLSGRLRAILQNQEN
hA3G-5G(24–28)-HA (Q9HC16, form named): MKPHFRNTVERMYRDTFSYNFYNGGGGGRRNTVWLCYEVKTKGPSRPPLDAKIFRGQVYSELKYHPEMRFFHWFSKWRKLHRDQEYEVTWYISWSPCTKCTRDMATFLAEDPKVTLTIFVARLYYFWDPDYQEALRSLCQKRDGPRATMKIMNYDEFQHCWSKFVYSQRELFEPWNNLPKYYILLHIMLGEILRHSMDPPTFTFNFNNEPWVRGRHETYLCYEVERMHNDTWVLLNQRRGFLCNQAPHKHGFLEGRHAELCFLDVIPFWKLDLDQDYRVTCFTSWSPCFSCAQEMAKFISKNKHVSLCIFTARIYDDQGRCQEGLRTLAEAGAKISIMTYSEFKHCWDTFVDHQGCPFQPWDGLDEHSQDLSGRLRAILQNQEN
hA3G-C97/100A-HA (Q9HC16, form named): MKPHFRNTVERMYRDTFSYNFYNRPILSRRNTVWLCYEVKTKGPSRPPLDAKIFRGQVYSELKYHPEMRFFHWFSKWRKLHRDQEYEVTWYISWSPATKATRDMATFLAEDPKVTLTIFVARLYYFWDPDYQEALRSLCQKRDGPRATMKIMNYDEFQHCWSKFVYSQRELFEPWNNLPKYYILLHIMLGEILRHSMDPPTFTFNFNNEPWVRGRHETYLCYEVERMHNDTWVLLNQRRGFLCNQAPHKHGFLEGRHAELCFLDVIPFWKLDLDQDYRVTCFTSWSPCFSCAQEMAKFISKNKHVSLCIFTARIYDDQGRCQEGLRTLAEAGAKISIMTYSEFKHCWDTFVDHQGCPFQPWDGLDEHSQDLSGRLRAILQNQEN

Results are given in words; binding and its absence hold for the method and conditions named. Binding seen in cells or lysates may run through a third protein. Some entries that bind do so weakly or less than the wild type.

In the assay the target is myc-tagged wild-type human APOBEC3G (human) (UniProt Q9HC16). Description: co-IP; 293T cells co-transfected with HA-tagged wild-type or mutant hA3G and hA3G-myc; lysed after 48 h in RIPA buffer (50 mM Tris-HCl pH 7.4, 150 mM NaCl, 1% NP-40, 0.5% sodium deoxycholate, 0.1% SDS); anti-myc affinity gel 1 h at 4°C; blot with anti-HA; wild-type immune complexes also with or without 25 U RNase A.
Consider “hA3G-4G(124–127)-HA (from UniProt Q9HC16 1-384)”, for which the binding result is “no binding”.
Turning to “hA3G-5G(24–28)-HA (from UniProt Q9HC16 1-384)”, the binding entry was “no binding”.
As for “hA3G-C97/100A-HA (from UniProt Q9HC16 1-384)”, the entry is “no binding”.
On to “hA3G-E259Q-HA (from UniProt Q9HC16 1-384)”, for which the binding entry is reported as “binds”.
As for “hA3G-NΔ30-HA (from UniProt Q9HC16 31-384) (domain or fragment)”, the entry is “no binding”.
The same measure for “hA3G-NΔ60-HA (from UniProt Q9HC16 61-384) (domain or fragment)”: “no binding”.
The same measure for “hA3G-NΔ90-HA (from UniProt Q9HC16 91-384) (domain or fragment)”: “no binding”; for “hA3G-NΔ120-HA (from UniProt Q9HC16 121-384) (domain or fragment)”: “no binding”; for “hA3G-NΔ150-HA (from UniProt Q9HC16 151-384) (domain or fragment)”: “no binding”.
On to “hA3G-R24G-HA (from UniProt Q9HC16 1-384)”, for which the binding result is given as “binds”.
The same measure for “hA3G-Y125G-HA (from UniProt Q9HC16 1-384)”: “binds”.
